In PMC4336329 (PLoS ONE, 2015):
Among all 310,000 compounds or so, about 14,000 (4.5%) showed an effect of 50% or more. Effects have a minus sign here. The list shows a part of the results.

The molecules below were run against human ether-à-go-go-related gene (hERG) potassium channel (human, UniProt Q12809) (assay: primary screen, population patch clamp on CHO cells stably expressing hERG).
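Also: peak tail current of the secondary pulse compared with the same well before compound.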

human ether-à-go-go-related gene (hERG) potassium channel, sequence (Q12809 whole entry, looked up): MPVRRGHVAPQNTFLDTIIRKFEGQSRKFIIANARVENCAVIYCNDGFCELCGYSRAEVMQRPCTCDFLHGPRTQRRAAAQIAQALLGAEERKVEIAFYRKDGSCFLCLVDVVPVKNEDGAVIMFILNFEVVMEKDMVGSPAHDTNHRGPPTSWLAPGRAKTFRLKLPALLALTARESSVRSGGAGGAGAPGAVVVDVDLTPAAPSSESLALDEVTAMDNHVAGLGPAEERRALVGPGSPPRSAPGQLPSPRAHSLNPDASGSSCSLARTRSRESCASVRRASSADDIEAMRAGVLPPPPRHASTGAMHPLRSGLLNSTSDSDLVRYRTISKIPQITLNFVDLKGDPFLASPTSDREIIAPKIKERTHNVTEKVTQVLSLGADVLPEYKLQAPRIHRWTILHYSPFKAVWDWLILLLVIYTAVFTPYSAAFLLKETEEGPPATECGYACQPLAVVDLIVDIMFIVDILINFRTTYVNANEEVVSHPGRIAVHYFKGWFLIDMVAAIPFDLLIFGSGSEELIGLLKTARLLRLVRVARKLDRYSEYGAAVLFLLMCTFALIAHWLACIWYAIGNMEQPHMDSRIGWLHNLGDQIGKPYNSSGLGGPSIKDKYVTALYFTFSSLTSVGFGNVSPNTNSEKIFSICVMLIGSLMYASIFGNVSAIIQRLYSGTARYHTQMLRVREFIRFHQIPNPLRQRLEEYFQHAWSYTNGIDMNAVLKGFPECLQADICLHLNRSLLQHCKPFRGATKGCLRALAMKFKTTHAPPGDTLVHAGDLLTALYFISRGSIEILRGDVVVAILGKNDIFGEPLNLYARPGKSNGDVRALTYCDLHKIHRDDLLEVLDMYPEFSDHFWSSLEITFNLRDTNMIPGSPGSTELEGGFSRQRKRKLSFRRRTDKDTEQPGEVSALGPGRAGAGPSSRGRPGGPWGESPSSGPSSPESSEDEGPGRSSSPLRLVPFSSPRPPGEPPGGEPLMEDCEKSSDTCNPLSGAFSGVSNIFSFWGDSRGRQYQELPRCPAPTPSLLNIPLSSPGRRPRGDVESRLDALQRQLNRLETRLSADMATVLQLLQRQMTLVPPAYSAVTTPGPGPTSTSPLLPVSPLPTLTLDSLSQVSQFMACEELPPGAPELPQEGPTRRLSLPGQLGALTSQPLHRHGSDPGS

Row | Compound | hERG current change (%, negative = inhibition) at 10uM
1 | CC(=O)c1nnn(-c2ccccc2C#N)c1C | 8.41%
2 | O=C(c1cccs1)N(c1cccc(Cl)c1)C1C=CS(=O)(=O)C1 (centres unmarked) | -6.14%
3 | S=C(NCCc1ccccn1)Nc1ccc(Cl)cc1 | 8.01%
4 | COC(=O)CN1C(c2cccc(Cl)c2)=Nc2ccc(Cl)cc2C1c1ccccc1 (centres unmarked) | 1.61%
5 | O=C(Nc1c(-c2ccccc2)nc2ccccn12)c1cccc(F)c1 | 8.95%
6 | COc1ccc(C(=O)OCC(=O)Nc2ccc(F)c(F)c2)cc1OC | 0.471%
7 | CC1=C(c2ccccc2)C(=S)NC(C)(C)C1 | 1.56%
8 | Cc1cc(Cl)c(OCCOCCN2CCNCC2)c(Cl)c1.O=C(O)C(=O)O | -7.47%
9 | COc1ccc(-n2cnnc2SCC(=O)Nc2cccnc2Cl)cc1 | -18.7%
10 | CCC(C(=O)Nc1cc(C)on1)c1ccccc1 (centres unmarked) | -1.18%
11 | N#Cc1ccccc1OCC(=O)NC(=O)NCc1ccco1 | 7.21%
12 | CC(=O)N1N=C(c2ccc(C)o2)CC1c1ccc(Br)cc1 (centres unmarked) | -6.45%
13 | COc1ccccc1N1CCN(C(=O)c2ccc(Cl)c(S(=O)(=O)N3CCCC3)c2)CC1 | -38%
14 | CC(C)CNc1nc(N)c([N+](=O)[O-])c(N2CCCCCC2)n1 | -0.987%
15 | Br.CC(C)CCC1CC(CSC(=N)N)OC1=O (centres unmarked) | -14%
16 | CC(NC(=O)C1=CC=CN2CCS(=O)(=O)N=C12)c1ccc(Cl)cc1Cl (centres unmarked) | -57.9%
17 | COc1ccc(Cc2nnc(NC(=O)c3c(-c4ccccc4)noc3C)s2)cc1OC | -11.9%
18 | CCN(CC)S(=O)(=O)c1ccc(NC(=O)c2ccc(Sc3nncn3C)c([N+](=O)[O-])c2)cc1 | -49.6%
19 | CC(C)NC(=O)NC(=O)CSc1nnc(COc2ccccc2Cl)o1 | -14.6%

Row | Compound | hERG current change (%, negative = inhibition) at 10uM
20 | CCc1ccc(NS(=O)(=O)c2cc3c(cc2C)n(C)c(=O)c(=O)n3C)cc1 | -15.5%
21 | CN(N)c1nc(N2CCCC2)nc(N2CCCC2)n1 | -16.6%
22 | CC1(C(=O)NC2CCCCCC2)CCC(=O)N1Cc1ccc2c(c1)OCO2 (centres unmarked) | -9.41%
23 | COc1cccc(CNC(=O)CCC2CCCN(C(=O)c3ccc(C)nc3)C2)c1 (centres unmarked) | 9.47%
24 | C=CCN(CC=C)C(=O)CN1C(=O)NC(c2ccccc2)(c2ccccc2)C1=O | -20.2%
25 | O=C(NC(=S)NC1CCCCC1)c1ccccc1[N+](=O)[O-] | 15.3%
26 | O=C(CSc1nnc(Cn2c(=O)sc3ccccc32)n1CCc1ccccc1)N1CCCC1 | -4.26%
27 | CCCOc1cccc(CN2CCCCC2c2cccnc2)c1.Cl (centres unmarked) | -8.51%
28 | O=C(Nc1cccn(Cc2cccc(F)c2)c1=O)NC1CCCCC1 | -33.6%
29 | COc1ccccc1/C=C(\C#N)C(=O)c1cccn1C | 5.95%
30 | CN1CCN(C(c2cccc(C(F)(F)F)c2)c2nnnn2Cc2ccccc2)CC1 (centres unmarked) | -23.8%
31 | Cc1ccccc1C(=O)NC1CCN(C(=O)N2CCOCC2)CC1 | 15.5%
32 | O=C(NCCc1nnc2ccccn12)c1cccs1 | 4.04%
33 | CCN(CC)S(=O)(=O)c1ccc(C)c(NCC(=O)Nc2ccc(C#N)c(Cl)c2)c1 | -3.28%
34 | CCn1c(SCC(=O)N2CCN(c3ccc(Cl)cc3)CC2)nc2ccccc2c1=O | 8.79%
35 | COc1cc(C(=O)Nc2nc3ccc(C)cc3s2)ccc1OCc1c(C)noc1C | -5.4%
36 | COc1cc(-c2cc(C(=O)NCc3ccco3)c3ccccc3n2)cc(OC)c1OC | -18.7%
37 | C#CCOCCOCCOCCNc1nc(N2CCN(C(=O)CCCCCCCCCCNC(=O)Cn3cc(C[C@@H](C)O)nn3)CC2)nc(N2CCN(C(=O)CCCCCCCCCCNC(=O)Cn3cc(C[C@@H](C)O)nn3)CC2)n1 | 13.2%
38 | CC(C(=O)NCc1ccc(F)cc1)c1ccc([N+](=O)[O-])cc1 (centres unmarked) | -39.4%

Row | Compound | hERG current change (%, negative = inhibition) at 10uM
39 | c1ccc2oc(-c3ccc(Nc4nc(N5CCCC5)nc(N5CCOCC5)n4)cc3)nc2c1 | 16.2%
40 | COc1ccc(NC(=O)c2ccc(NS(=O)(=O)c3cccc4cccnc34)cc2)cc1 | 7.19%
41 | O=C(O)Cn1c(SCc2ccccc2)nc2ccccc21 | -28.7%
42 | O=C(CSc1nc(Nc2ccccc2)nc(N2CCOCC2)n1)Nc1ccccc1Cl | -15.8%
43 | CCOC(=O)c1nnn(-c2nonc2N)c1CN(CC)c1ccccc1 | -10.8%
44 | CC(=O)c1c(C)nc2ccccn12 | -7.46%
45 | CCc1ccc(-c2nc(CN3CCC(C(=O)NCc4ccccc4OC)CC3)c(C)o2)cc1 | -68.4%
46 | O=C(O)COc1ccc2c(c1)CCCC2 | 12.6%
47 | CC(=O)N1CCOc2ccc(S(=O)(=O)N3CCC(C(=O)Nc4ccc(F)cc4)CC3)cc21 | -13.3%
48 | CCN(CC)C(=O)C1=C(C)NC(=S)NC1c1cccs1 (centres unmarked) | 11.8%
49 | COc1ccc(CC(=O)NCC2CCCN(Cc3ccc(F)cc3F)C2)cc1 (centres unmarked) | -17.5%
50 | O=C(c1cc(=O)c2ccccc2o1)N1CCN(c2ccccc2)CC1 | 1.71%
51 | COCCOC(=O)c1c(NC(=O)CN2CCc3ccccc32)sc(C(N)=O)c1C | 5.03%
52 | CCCCN1CN(Cc2ccco2)CNC1=S | 4.44%
53 | O=C(CNC(=O)c1ccc(F)cc1)NCc1ccccn1 | -1.73%
54 | CC1=NN(c2ccccc2)C(=O)/C1=C\N(O)c1ccccc1 | 3.55%
55 | COC(=O)c1ccc2c(c1)NC(=O)C(N1CCCC1)S2 (centres unmarked) | -4.37%
56 | COc1cc(C(=O)N=c2sc3ccccc3n2C)cc(OC)c1OC | 9.29%
